# From the RNAGym collection of RNA variant scans (doi:10.7554/elife.90254)
# Read counts are not given, so values of variants with three or more changes are uncertain.
# B1: LINE1-mini (parent)
# chain: GGCAGAGCUCAACACAGCGUGGCAAAGUGGCUGUGGCUAGACUGCC
# Variants of: B1
# Experiment: self-cleavage, relative activity (ratio to wild type); higher = more cleavage; in vitro, sequencing; the parent is a self-cleaving ribozyme
row,Variant,self-cleavage
1,G1U A16C C31U,0.03
2,G1U C8U A14C G22A C42U,0.04
3,G1U A16G G17C A41G,0.03
4,G1U A11C C45G,0.04
5,G1C G30U G33C,0.02
6,G1C G36C A41U C46A,0.02
7,G1U C8A C15U U28A C31G U38A C46G,0.02
8,G1U A12U G30C G35U G36U,0.02
9,G1U A12C U20A G33U G35U U38A,0
10,G1U A12G G29U,0
11,G1C G7A G22A C23G C46A,0.03
12,G1C C8G C13G C15U U32C,0.02
13,G1C G7A A12U A14G U20A A39C,0.01
14,G1U A24U G33A U43A,0.2
15,G1U C10G A39G,0.02
16,G1C C10G G29C G30U,0.03
17,G1U A12G G21A A25G G33C,0.01
18,G1C G7C A25G G40C A41G,0.03
19,G1C G21C A25G G33A G35U C37A C46U,0.01
20,G1C G5C C46U,0.04
21,G1C U9C C13U A14U G29U,0.02
22,G1C A12C G40C,0.02
23,G1C C3U C37A,0.02
24,G1C C23U A39U,0.03

row,Variant,self-cleavage
1,G1C G5U A16C G27U A41U C42A,0.04
2,G1C A16C C37A,0.03
3,G1C U9A A39C C46U,0.01
4,G1C G21U C37G,0.03
5,G1U C3A C18A G36A C37U,0.06
6,G1U A4C G21A,0.29
7,G1U A11G G19A,0.04
8,G1C G17C G44C,0.08
9,G1C U9C C23G G36A C45U,0.03
10,G1C A41G G44C,0.02
11,G1C C18A U28A A39U G40C,0.01
12,G1C G21A C23A G29U,0.05
13,G1U A11G A16U,0.01
14,G1U A4G C8A C13U A24C,0.25
15,G1U A26C G30A A41C,0.02
16,G1C G2A G22U,0.36
17,G1C G2A G22A,0.13
18,G1C G19C U20A G22A G29A A39C,0.04
19,G1U C3A A14G G21U,1.55
20,G1C G2C C3G U20C,0.13
21,G1U A26G G30C,0.24
22,G1C U9G C15A A26G G33U U43C,0.01
23,G1U A14U A24C U28A G35U G40A,0.01
24,G1U A14C G30A C31A,0.04

row,Variant,self-cleavage
1,G1C G2U C10U A11U C37U,0.01
2,G1C U20C C31U A39U C46U,0.02
3,G1U C8G C23U U38C,0.05
4,G1C G2U G7U U9A G22A C23A G40U,0.02
5,G1C C8G G36A C46U,0.02
6,G1C C10U G40C C42G,0
7,G1C G22C G30U C45G,0.01
8,G1C G2U A25C C31G,0.03
9,G1U A4G A16C C18U G29C G35C,0.06
10,G1U A16U G17A G30A A39C,0
11,G1C G33U U38A C46U,0.01
12,G1C A11U A16G,0
13,G1C C23A A26C U32C,0.04
14,G1U A12G A41G,0.02
15,G1U C8G G35U G36A,0.04
16,G1U A4G A12U G17U U32A,0.01
17,G1C A12G C18G G19U C23A,0.02
18,G1U C13U A16C G35U,0.01
19,G1C U20G G35C,0.05
20,G1U A24U A26U C45U,0.99
21,G1U C3G C18G C31G,0.01
22,G1U C10G A16G A24G,0.07
23,G1U C10A A14U G22U,0.02
24,G1C A11U A12C,0.01

row,Variant,self-cleavage
1,G1U A12C G17U A26C G30C G40C,0
2,G1U C3A A11U G22U A41C,0.02
3,G1U A4U A11G G21A,0.02
4,G1C A16C G27U U28G,0.03
5,G1C C10A G22A G36C,0.02
6,G1C G7U G40A C42G C45U,0.06
7,G1U A24U C42A,0.04
8,G1U C10U A39U,0.01
9,G1C U28G C45A C46U,0.01
10,G1U A6U U34A,0.01
11,G1C C3G C8A C10U G19A C37U,0.02
12,G1U A4U A26C C37A,0.12
13,G1U C8A U9A C13A,0.09
14,G1C G5C C15G A26C,0
15,G1U A25U A41G,0.07
16,G1C A14U C42A C46G,0.03
17,G1U A6G U34C C37U A39U,0.02
18,G1C G2U C10G C18A A26U,0.01
19,G1C A39U C45G,0.08
20,G1C A14G A24G,0.17
21,G1C A12G G17C C23A C45G,0.18
22,G1C C18A A26C U32C G36C U38G,0.01
23,G1C A39G G44A,0.01
24,G1U A24U U43G,0

row,Variant,self-cleavage
1,G1C A16C C18U U32A G33A A39G,0.02
2,G1C A16C U32C G33A,0.02
3,G1C A16U U34A G35U,0
4,G1U C10A C13A G22U G33U,0
5,G1C U28A U38A,0.05
6,G1C C8G G22C,0.02
7,G1U C3A A12C U32G A39C G40A,0.02
8,G1U C8U C37G C42G C46A,0.07
9,G1U C3U G36U,0.24
10,G1C C3G G27U G30U C37A,0.14
11,G1U A6G A14U G29U A41C U43G,0.01
12,G1C G5C G7A G33U,0
13,G1U C10U A16C,0.06
14,G1C A14U U43A,0
15,G1C C10G C13U G35U G44U,0
16,G1C C15A C37A A39G G40A,0.01
17,G1U A26U U43A,0.07
18,G1U A6G A12U C18G G22A G27U G35A,0.01
19,G1C U9C C10A G30A U34C C45U,0.01
20,G1U A12C G17U,0.02
21,G1U A14U A16G,0.07
22,G1U C8U C10A A14G U32G G36A,0.01
23,G1U A11U U28A C42U U43G C45G,0
24,G1C G2A A39U,0.03

row,Variant,self-cleavage
1,G1C G5U C15G C42A U43G,0.3
2,G1C G36U C42U,0.26
3,G1U A6C G30A G33U,0.01
4,G1C G2A G19U,0.09
5,G1U A6C C8A U32G,0.07
6,G1C G19U G33A,0
7,G1C C8U A11U G21A C37G A41U,0.01
8,G1U C8A U32C,0.04
9,G1U A4U U9A G22U G29U,0.09
10,G1U A4G G7A C18G A41C,0.06
11,G1C G5C G17A C37G,0.01
12,G1C A11C C15U,0.01
13,G1C A14G G17U C23A G29U C42U,0
14,G1U A4C G5A A24C U28G,0.05
15,G1U C8G A11G A26G C42G,0.03
16,G1U C3A C8A C10U C15A,0.19
17,G1C C13G G19C U20A C45U,0.02
18,G1C G36C C37A,0.02
19,G1C U9A U20G C31U G35C A41U,0
20,G1C G17A G29U,0.03
21,G1U C10A G27A G29U C42G,0.01
22,G1C G2A G30A,0.05
23,G1C G19A U28C U32A G36C,0.01
24,G1C G19U U32G,0.02

row,Variant,self-cleavage
1,G1C C8A U20A U32A G36U,0.01
2,G1C C8A C37G,0.04
3,G1C A11C C23U,0.02
4,G1C U9G C23U,0.01
5,G1C C18A C31G G44C,0.09
6,G1C C3U A4U A14C U28C G30A,0.02
7,G1U C13A G17C U28A G40A,0.03
8,G1C C3G G7U A11G C15A G17C A26G A39G,0.03
9,G1U A4U G5U,0.11
10,G1C C13A G17U,0.06
11,G1C A25C C37U C46A,0.01
12,G1U A12G A39G,0.01
13,G1U C3G A11U C18A G22A U34A G44C,0.01
14,G1U A4U G5A A12C,0.12
15,G1C C18U U20C G30U G44U,0.01
16,G1C C3A C8A C13G C18G C45A,0.09
17,G1C A6U G35U,0
18,G1U C3G G5C C8A G22U U32A U43G,0.45
19,G1U A24U G44A,0.17
20,G1U C8G A24C G27C G33A,0
21,G1C G17A C45G,0.03
22,G1C G30C C31G C45G,0.02
23,G1C C3U A14G G22A,0.2
